For six molecules, binding results are on record in article PMC8847735.

Amino acid sequences for entries named in this document (tags omitted). A change or cut given only in a name is not applied to a line headed by its entry.
UniProt P40763: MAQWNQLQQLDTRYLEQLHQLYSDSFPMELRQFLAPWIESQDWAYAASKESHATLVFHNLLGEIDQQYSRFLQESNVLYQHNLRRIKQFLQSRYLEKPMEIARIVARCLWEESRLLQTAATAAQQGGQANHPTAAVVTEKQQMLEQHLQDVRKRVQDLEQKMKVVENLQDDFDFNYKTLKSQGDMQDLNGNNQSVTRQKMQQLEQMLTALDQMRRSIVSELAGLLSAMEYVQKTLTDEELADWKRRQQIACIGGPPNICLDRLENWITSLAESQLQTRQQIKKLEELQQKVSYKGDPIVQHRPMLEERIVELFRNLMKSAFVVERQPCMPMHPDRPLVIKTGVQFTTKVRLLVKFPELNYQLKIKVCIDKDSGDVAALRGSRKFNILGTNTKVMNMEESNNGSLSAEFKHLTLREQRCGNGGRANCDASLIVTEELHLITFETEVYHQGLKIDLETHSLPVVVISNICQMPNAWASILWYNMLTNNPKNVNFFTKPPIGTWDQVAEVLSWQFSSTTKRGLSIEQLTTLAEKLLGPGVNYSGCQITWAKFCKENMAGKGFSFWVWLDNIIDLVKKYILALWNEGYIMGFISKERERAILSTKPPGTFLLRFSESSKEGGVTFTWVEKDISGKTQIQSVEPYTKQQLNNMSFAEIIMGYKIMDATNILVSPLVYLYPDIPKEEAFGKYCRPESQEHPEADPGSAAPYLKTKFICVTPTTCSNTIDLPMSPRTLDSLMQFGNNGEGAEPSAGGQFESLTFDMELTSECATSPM

One assay has as its target T1, Flag-tagged Pdia4 (UniProt P13667).
T1 sequence: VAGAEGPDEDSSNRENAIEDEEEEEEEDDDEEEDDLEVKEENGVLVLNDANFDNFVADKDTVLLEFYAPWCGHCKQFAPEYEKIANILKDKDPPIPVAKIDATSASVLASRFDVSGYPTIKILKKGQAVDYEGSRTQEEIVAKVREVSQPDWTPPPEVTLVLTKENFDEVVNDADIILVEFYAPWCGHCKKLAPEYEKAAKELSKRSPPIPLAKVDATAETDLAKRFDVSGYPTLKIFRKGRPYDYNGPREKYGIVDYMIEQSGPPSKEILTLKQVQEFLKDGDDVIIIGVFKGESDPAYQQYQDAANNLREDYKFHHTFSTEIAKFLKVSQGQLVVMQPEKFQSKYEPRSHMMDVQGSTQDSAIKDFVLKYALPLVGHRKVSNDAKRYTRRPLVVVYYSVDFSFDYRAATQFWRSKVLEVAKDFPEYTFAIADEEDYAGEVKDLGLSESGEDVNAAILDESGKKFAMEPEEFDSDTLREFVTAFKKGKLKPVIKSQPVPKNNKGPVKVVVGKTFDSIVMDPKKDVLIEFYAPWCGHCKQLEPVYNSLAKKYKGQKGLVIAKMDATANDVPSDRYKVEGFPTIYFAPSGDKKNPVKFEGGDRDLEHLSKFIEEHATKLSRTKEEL
The assay is described as follows: co-IP; Jurkat cells co-transfected with His-tagged Stat3 or its mutants and Flag-tagged Pdia4; αFlag immunoprecipitation of lysates; immunoblot with αHis and αFlag. On the technique in general: A western blot detects proteins with antibodies after separation by electrophoresis.

Assay [1] concerns the target T2, Protein disulfide isomerase a4 (Pdia4) in Jurkat total lysate (UniProt P13667).
T2 sequence: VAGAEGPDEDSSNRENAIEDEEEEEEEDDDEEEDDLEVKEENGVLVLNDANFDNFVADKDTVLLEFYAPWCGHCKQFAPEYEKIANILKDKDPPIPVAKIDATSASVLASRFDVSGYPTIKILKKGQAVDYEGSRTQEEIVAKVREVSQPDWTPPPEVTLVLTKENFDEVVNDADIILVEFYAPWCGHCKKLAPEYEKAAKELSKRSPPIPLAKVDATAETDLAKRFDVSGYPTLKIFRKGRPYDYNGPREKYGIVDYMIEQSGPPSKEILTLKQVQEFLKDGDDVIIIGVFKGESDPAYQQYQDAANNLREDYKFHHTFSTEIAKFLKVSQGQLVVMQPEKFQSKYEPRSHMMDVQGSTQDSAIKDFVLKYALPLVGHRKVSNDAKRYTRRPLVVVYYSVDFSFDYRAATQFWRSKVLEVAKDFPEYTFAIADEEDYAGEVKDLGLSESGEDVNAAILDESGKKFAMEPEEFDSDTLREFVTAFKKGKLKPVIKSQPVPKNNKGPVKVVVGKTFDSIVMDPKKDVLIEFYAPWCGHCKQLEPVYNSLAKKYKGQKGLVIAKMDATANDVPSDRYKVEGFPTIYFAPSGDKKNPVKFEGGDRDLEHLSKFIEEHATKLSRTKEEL
The assay is described as follows: co-IP; total lysates of Jurkat cells incubated with αPdia4 or isotype antibodies plus protein G beads; immunoblot with αPdia4 and αStat3.

Assay [2] concerns the target His-tagged Stat3, full length (pHis-Stat3) (UniProt P40763). The assay is described as follows: pull-down; Jurkat cells co-transfected with Flag-tagged Pdia4 or its mutants and His-tagged Stat3; precipitation of lysates with nickel beads (called co-immunoprecipitation with nickel beads); immunoblot with αFlag and αHis.
For assay [3], the target named is His-Stat3 (recombinant protein containing a His-tagged Stat3) (UniProt P40763). The assay is described as follows: co-IP; recombinant His-tagged Stat3 incubated in vitro with His-tagged Pdia4 or His-tagged VP3; αStat3 precipitation; immunoblot with αHis; both purified.

Results are given in words; binding and its absence hold for the method and conditions named. For part of these data: In cells and extracts the contact can be indirect. Some results given as binding are weak or reduced against the parent protein; the word gives no strength. For part of these data: Sequences can lack the tags named with a protein.

Turning to “His-tagged Stat3, full length (pHis-Stat3) (from UniProt P40763 1-770)”, the binding result with Flag-tagged Pdia4 was “binds”.
In the case of “Signal transducer and activator of transcription 3 (Stat3) in Jurkat total lysate (from UniProt P40763 1-770)”, the binding entry in assay [1] is listed as “binds”.
“His-tagged Stat3^1-143 (N-terminal domain of Stat3) (from UniProt P40763 1-143) (domain or fragment)”: in the assay with Flag-tagged Pdia4, the binding entry is reported as “binds”.

B1: Flag-tagged Pdia4^280-646 (domain or fragment, UniProt P13667 280-645)
chain: IEQSGPPSKEILTLKQVQEFLKDGDDVIIIGVFKGESDPAYQQYQDAANNLREDYKFHHTFSTEIAKFLKVSQGQLVVMQPEKFQSKYEPRSHMMDVQGSTQDSAIKDFVLKYALPLVGHRKVSNDAKRYTRRPLVVVYYSVDFSFDYRAATQFWRSKVLEVAKDFPEYTFAIADEEDYAGEVKDLGLSESGEDVNAAILDESGKKFAMEPEEFDSDTLREFVTAFKKGKLKPVIKSQPVPKNNKGPVKVVVGKTFDSIVMDPKKDVLIEFYAPWCGHCKQLEPVYNSLAKKYKGQKGLVIAKMDATANDVPSDRYKVEGFPTIYFAPSGDKKNPVKFEGGDRDLEHLSKFIEEHATKLSRTKEEL
Regarding B1, the binding entry in assay [2] is listed as “no binding”.

B2: His-Pdia4 (His-tagged Pdia4, recombinant) (protein, UniProt P13667 21-645)
chain: VAGAEGPDEDSSNRENAIEDEEEEEEEDDDEEEDDLEVKEENGVLVLNDANFDNFVADKDTVLLEFYAPWCGHCKQFAPEYEKIANILKDKDPPIPVAKIDATSASVLASRFDVSGYPTIKILKKGQAVDYEGSRTQEEIVAKVREVSQPDWTPPPEVTLVLTKENFDEVVNDADIILVEFYAPWCGHCKKLAPEYEKAAKELSKRSPPIPLAKVDATAETDLAKRFDVSGYPTLKIFRKGRPYDYNGPREKYGIVDYMIEQSGPPSKEILTLKQVQEFLKDGDDVIIIGVFKGESDPAYQQYQDAANNLREDYKFHHTFSTEIAKFLKVSQGQLVVMQPEKFQSKYEPRSHMMDVQGSTQDSAIKDFVLKYALPLVGHRKVSNDAKRYTRRPLVVVYYSVDFSFDYRAATQFWRSKVLEVAKDFPEYTFAIADEEDYAGEVKDLGLSESGEDVNAAILDESGKKFAMEPEEFDSDTLREFVTAFKKGKLKPVIKSQPVPKNNKGPVKVVVGKTFDSIVMDPKKDVLIEFYAPWCGHCKQLEPVYNSLAKKYKGQKGLVIAKMDATANDVPSDRYKVEGFPTIYFAPSGDKKNPVKFEGGDRDLEHLSKFIEEHATKLSRTKEEL
For the molecule B2, the binding entry in assay [3] is “binds”.

B3: Flag-tagged Pdia4 (protein, UniProt P13667 21-645)
chain: VAGAEGPDEDSSNRENAIEDEEEEEEEDDDEEEDDLEVKEENGVLVLNDANFDNFVADKDTVLLEFYAPWCGHCKQFAPEYEKIANILKDKDPPIPVAKIDATSASVLASRFDVSGYPTIKILKKGQAVDYEGSRTQEEIVAKVREVSQPDWTPPPEVTLVLTKENFDEVVNDADIILVEFYAPWCGHCKKLAPEYEKAAKELSKRSPPIPLAKVDATAETDLAKRFDVSGYPTLKIFRKGRPYDYNGPREKYGIVDYMIEQSGPPSKEILTLKQVQEFLKDGDDVIIIGVFKGESDPAYQQYQDAANNLREDYKFHHTFSTEIAKFLKVSQGQLVVMQPEKFQSKYEPRSHMMDVQGSTQDSAIKDFVLKYALPLVGHRKVSNDAKRYTRRPLVVVYYSVDFSFDYRAATQFWRSKVLEVAKDFPEYTFAIADEEDYAGEVKDLGLSESGEDVNAAILDESGKKFAMEPEEFDSDTLREFVTAFKKGKLKPVIKSQPVPKNNKGPVKVVVGKTFDSIVMDPKKDVLIEFYAPWCGHCKQLEPVYNSLAKKYKGQKGLVIAKMDATANDVPSDRYKVEGFPTIYFAPSGDKKNPVKFEGGDRDLEHLSKFIEEHATKLSRTKEEL
For the molecule B3, the binding entry in assay [2] was “binds”.
